Measurements as given in paper PMC6212398, “Competing protein-protein interactions regulate binding of Hsp27 to its client protein tau” (Nature Communications, 2018).
Results are given in words; binding and its absence hold for the method and conditions named. Some results given as binding are weak or reduced against the parent protein; the word gives no strength.

Amino acid sequences for entries named in this document (tags omitted). A change or cut given only in a name is not applied to a line headed by its entry. Chains listed by the source or under a name are the forms on record and can include a tag or linker. Residues count along the entry.
UniProt O95817: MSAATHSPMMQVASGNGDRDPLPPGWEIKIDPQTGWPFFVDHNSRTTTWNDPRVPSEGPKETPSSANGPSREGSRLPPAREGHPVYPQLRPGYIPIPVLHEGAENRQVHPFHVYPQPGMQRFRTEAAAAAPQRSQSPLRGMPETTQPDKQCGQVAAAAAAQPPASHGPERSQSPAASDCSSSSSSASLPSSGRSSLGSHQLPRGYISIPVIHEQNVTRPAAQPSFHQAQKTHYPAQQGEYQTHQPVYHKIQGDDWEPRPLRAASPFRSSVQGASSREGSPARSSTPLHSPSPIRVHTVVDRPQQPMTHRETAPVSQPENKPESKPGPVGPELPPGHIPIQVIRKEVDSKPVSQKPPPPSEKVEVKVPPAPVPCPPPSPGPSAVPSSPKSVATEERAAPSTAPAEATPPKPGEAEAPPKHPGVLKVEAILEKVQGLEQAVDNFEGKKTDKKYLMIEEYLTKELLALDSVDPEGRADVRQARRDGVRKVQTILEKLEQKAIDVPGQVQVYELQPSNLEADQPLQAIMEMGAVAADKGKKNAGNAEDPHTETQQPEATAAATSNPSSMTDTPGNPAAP
Hsp27 alpha-crystallin domain (ACD, residues Q80–S176) (P04792, residues 80-176): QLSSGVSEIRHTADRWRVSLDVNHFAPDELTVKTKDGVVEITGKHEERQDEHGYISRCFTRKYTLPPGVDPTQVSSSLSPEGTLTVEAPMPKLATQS
Hsp27 ACD L157A (P04792, form named): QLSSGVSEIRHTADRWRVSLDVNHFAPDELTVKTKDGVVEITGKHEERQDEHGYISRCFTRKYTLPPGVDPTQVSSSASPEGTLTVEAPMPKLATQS

Target: BAG3 (UniProt O95817)
Assay: ITC; sHSP (200 µM) in the syringe titrated into 10 µM BAG3 in the cell; 25 mM Hepes, 5 mM MgCl2, 100 mM KCl, pH 7.5; 25 °C; both purified

Row | Substance | binding
1 | Hsp27 ACD L157A (from UniProt P04792 80-176) (domain or fragment) | no binding (tested: sHSP (200 µM) titrated into 10 µM BAG3)
2 | Hsp27 alpha-crystallin domain (ACD, residues Q80–S176) (from UniProt P04792 80-176) (domain or fragment) | binds
